Experimental data reported in publication PMC12040169 (PLOS Biology, 2025).
The list shows a part of the results.

system: T1, C. trachomatis L2/434/Bu expressing GFP (CTL2-GFP); set-up: species or system HeLa; C. trachomatis total inclusion area by high-content imaging, normalised to DMSO; conditions: total inclusion area; 28.5 h, 10 µM; inhibitor
T1 construct: L2/434/Bu GFP intracellular growth in HeLa cells
In short: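 High-content images of fixed, Hoechst-stained infected cultures supply inclusion area and count (growth) plus nuclei number (viability), complementing bulk GFP/resorufin fluorescence. MIC determination is unchanged from the primary assay.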

SMILES | % of control remaining
CCN(CC)C(=O)CN(CCc1ccc(OC)c(OC)c1)C(=O)NCc1cc(C)on1 [CBK160581] | 99.7844
O=C(/C=C/c1ccccc1)NC(=S)Nc1cccc(-c2nc3ncccc3o2)c1 [CBK263742] | 96.4334
CN1CCCN(c2nc(-c3cccs3)cn3ccnc23)CC1 [CBK066652] | 82.4816
O=C(CCC1CCCO1)N1CCCC(COc2ccc(F)cc2)C1 (centres unmarked) [CBK282031] | 122.674
Cc1nc[nH]c1CN1CCCN(S(=O)(=O)c2ccc(C(F)(F)F)cc2Cl)CC1 [CBK063035] | 72.8163
O=C(O)c1cccc(NS(=O)(=O)c2cc(C(F)(F)F)cc(C(F)(F)F)c2)c1 [CBK155725] | 92.0481
CCc1cc2c(=O)c(-c3nc4ccccc4n3C)c(C)oc2c(CN2CCOCC2)c1O [CBK262124] | 112.586
Clc1ccc(CNc2ncc(-c3ccc(N4CCOCC4)cc3)n3ccnc23)cc1Cl [CBK091229] | 98.1744
Cc1cc(C)c(Oc2nc(=O)n([C@H]3C[C@@H](O)[C@@H](CO)O3)cc2F)c(C)c1 [CBK201184] | 102.743
CSc1ncc(Cl)c(C(=O)Nc2ccc(S(=O)(=O)N3CCC(Cc4ccccc4)CC3)cc2)n1 [CBK268870] | 100.172
CCOC(=O)c1ccc(Nc2nnc3nc(C)cc(C)n23)cc1 [CBK267600] | 99.239
C[C@@H]1C[C@H](Nc2ccccc2)c2ccccc2N1C(=O)CCC(=O)O [CBK286820] | 118.739
COCc1cc(C)nc2sc(C(N)=O)c(N)c12 [CBK018149] | 59.6488
CCn1c(=O)[nH]c2cc(C(=O)NCCc3ccccc3)ccc2c1=O [CBK265773] | 77.6732
O=C(Cn1c(=O)[nH]c2c(oc3ccccc32)c1=O)Nc1ccccc1 [CBK287818] | 117.715
Cc1ncccc1C(=O)NC(c1ccc(F)c(F)c1)c1nccn1C (centres unmarked) [CBK283809] | 99.4445
CN(CC(O)CN1CCOCC1)C(=O)c1cc2sccc2[nH]1 (centres unmarked) [CBK306437] | 33.8459
CCOc1ccc(OCCC#N)cc1 [CBK015880] | 38.0134
O=C([C@H]1O[C@H](CCN2CCN(c3ccccn3)CC2)CC[C@@H]1O)N1CCCC1 [CBK288730] | 98.3041
CC(=O)NC(CCC(N)=O)C(=O)N1CC2(CCCC2)c2c(F)cccc21 (centres unmarked) [CBK306412] | 45.8231
Cc1cc(NC(=O)c2ccc3c(c2)C(=O)N(CC2CCCO2)C3=O)no1 (centres unmarked) [CBK072998] | 83.2125
CC(C)(C)NCC(O)COc1c(F)cc(Br)cc1F (centres unmarked) [CBK020879C] | 88.2737
Cn1c(=O)n(CC(=O)NC2CC2)c2cccnc21 [CBK104297] | 102.526
Cc1ccccc1-c1ccc(C(=O)NCCc2ccc(S(N)(=O)=O)cc2)c(NCc2cccnc2)n1 [CBK076116] | 104.181
O=C(Nc1ccc(Cc2ccncc2)cc1)c1ccc(CSc2ccc(Cl)cc2)cc1 [CBK262526] | 62.6669

SMILES | % of control remaining
Cc1ccc(C(=O)NCc2ccc(-c3n[nH]cc3C(=O)N(C)Cc3ccccc3)cc2)cc1 [CBK285598] | 102.262
Cc1ccc(Oc2ncccc2[N+](=O)[O-])c(Br)c1 [CBK002822] | 104.323
CCCCc1ccc(-c2ccc3ccc(NC(=O)C(C)C)nc3n2)cc1 [CBK073668] | 111.368
COc1ccc([N+](=O)[O-])cc1NC(=O)c1nc(C)c(C)nc1C(=O)O [CBK103387] | 87.4729
O=C(O)c1cccc(NS(=O)(=O)c2ccc(Cl)c(C(=O)Nc3ccc(Br)cc3)c2)c1 [CBK263241] | 99.9506
OC(Cn1cnc(-c2ccccc2)c1-c1ccccc1)Cn1c2ccccc2c2ccccc21 (centres unmarked) [CBK261416] | 102.58
COc1cc(-c2cc(N3CCN(CCN4CCCC4)CC3)ncn2)cc(OC)c1OC [CBK037841] | 94.0941
Cc1ccc2c(CC(=O)N3CCNCC3c3cnn(C)c3)coc2c1C (centres unmarked) [CBK304271C] | 44.972
C[N+]1(C)CCCC1c1cc(Br)cnc1N (centres unmarked) [CBK217873I] | 96.7047
O=C1CCCN1CCOc1nccnc1-c1ccc(F)cc1 [CBK106895] | 87.9808
O=C(/C=C/c1ccco1)Nc1sc2c(c1C(=O)NCc1ccco1)CCC2 [CBK265616] | 52.6484
CCC(C(=O)Nc1ccccc1C(=O)Nc1c(Cl)cccc1Cl)c1ccccc1 (centres unmarked) [CBK266068] | 87.2304
O=C(c1ccccc1)N1CCC(c2cc3ncccc3[nH]2)CC1 [CBK283385] | 114.417
Nc1ncc(-c2cccnc2)nc1NCc1ccccc1 [CBK063349] | 163.437
Cc1cc2n(n1)C(c1ccc(C(=O)O)cc1)Nc1ccccc1-2 (centres unmarked) [CBK287000] | 97.4641
CC(=O)N1C[C@@H]2C[C@H](C1)c1ccc(NC(=O)c3ccc(C#N)cc3)c(=O)n1C2 [CBK289202] | 98.4956
c1ccc2c(c1)NCC21CCNCC1 [CBK022583] | 66.8812
COc1cc(S(=O)(=O)NCCOc2ccc(C(=O)O)cc2)c(OC)cc1Cl [CBK299825] | 80.8
CSCC[C@H](NC(=O)Nc1ccc(N2CCC(C)CC2)cc1)C(=O)O [CBK286743] | 83.698
c1ccc(OCCCCN2CCCC23CCc2[nH]c4ccccc4c2C3)cc1 (centres unmarked) [CBK092200T] | 67.0491
O=C(NC1CCCCC1)N[C@H]1CO[C@H]2[C@@H]1OC[C@@H]2n1cc(CC2CCCCC2)nn1 [CBK289510] | 104.02
Cn1ccc2cc(-c3cn4ccnc4c(N4CCOCC4)n3)ccc21 [CBK066696] | 79.9078
CCN(CC)CCSc1nc(O)c(-c2ccccc2)c(=O)n1-c1ccccc1 [CBK263335C] | 96.5958
CN1CC(C(=O)NCC(c2ccccc2)N2CCCCCC2)CC1=O (centres unmarked) [CBK282008] | 77.8425
Cc1nc2cc(C(=O)O)ccc2n1CCO [CBK260949] | 105.249
